# The list shows a part of the results. Sequences were assembled here from the parent chain. Inactive controls read about 0.05.
# B1: TEV protease; numbered along this chain (parent)
# chain: MGESLFKGPRDYNPISSSICHLTNESDGHTTSLYGIGFGPFIITNKHLFRRNNGTLVVQSLHGVFKVKDTTTLQQHLVDGRDMIIIRMPKDFPPFPQKLKFREPQREERICLVTTNFQTKSMSSMVSDTSCTFPSGDGIFWKHWIQTKDGQCGSPLVSTRDGFIVGIHSASNFTNTNNYFTSVPKNFMELLTNQEAQQWVSGWRLNADSVLWGGHKVFMVKPEEPFQPVKEATQL
# Variants of: B1
# Assay: raw area under fraction-flipped curve 0-4 h after induction (AUC4h, not background-subtracted), DNA-recorder readout of cleavage of the substrate (dimensionless); higher = more cleavage of the substrate by the protease variant
# Conditions: temperature: 34 °C; time window: 0-4 h after rhamnose induction
# Experimental: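 In vivo DNA recorder in E. coli TOP10(DE3) ΔrhaA at 34 °C. Each TEVp single-site mutant (parent TEVp 0) is paired with a single-site variant of the 7-mer TEVs (canonical ENLYFQ|S). The substrate sits between flexible linkers in a Bxb1-sfGFP-TEVs-SsrA fusion, so cleavage stabilises Bxb1 and speeds flipping of a recombination array, read by NGS. The value is the raw area under the fraction-flipped curve over 0-4 h after rhamnose induction (AUC4h), with ≥20 reads per time point. It is not background-subtracted; inactive controls average about 0.047.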
# 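Note: Bxb1 expression induced with 0.2% (w/v) L-rhamnose at OD600 near 0.5, cultures sampled hourly, flipped fraction per protease–substrate barcode pair counted by paired-end Illumina sequencing.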
Variant,area with substrate ENAYFQS,area with substrate ENCYFQS,area with substrate ENDYFQS,area with substrate ENEYFQS,area with substrate ENFYFQS,area with substrate ENGYFQS,area with substrate ENHYFQS,area with substrate ENIYFQS,area with substrate ENKYFQS,area with substrate ENMYFQS,area with substrate ENNYFQS,area with substrate ENPYFQS,area with substrate ENQYFQS,area with substrate ENRYFQS,area with substrate ENSYFQS,area with substrate ENTYFQS,area with substrate ENVYFQS,area with substrate ENWYFQS,area with substrate ENYYFQS
MGESLFKGPRDYNPISSSICHLTNESDGHTTSLYGIGFGPFIITNKHLFRRNNGTLVVQSLHGVFKVKDTTTLQQHLVDGRDMIIIRMPKDFPPFPQKLKFREPQREERICLVTTNFQTKSMSSMVSDTSCTFPSGDGIFWKHWYQTKDGQCGSPLVSTRDGFIVGIHSASNFTNTNNYFTSVPKNFMELLTNQEAQQWVSGWRLNADSVLWGGHKVFMVKPEEPFQPVKEATQL [I145Y],0.0642,0.0736,0.058,0.0627,0.0502,0.0817,0.0557,0.0651,0.0574,0.0677,0.0658,0.0571,0.0695,0.0587,0.0554,0.0592,0.0494,0.0725,
MGESLFKGPRMYNPISSSICHLTNESDGHTTSLYGIGFGPFIITNKHLFRRNNGTLVVQSLHGVFKVKDTTTLQQHLVDGRDMIIIRMPKDFPPFPQKLKFREPQREERICLVTTNFQTKSMSSMVSDTSCTFPSGDGIFWKHWIQTKDGQCGSPLVSTRDGFIVGIHSASNFTNTNNYFTSVPKNFMELLTNQEAQQWVSGWRLNADSVLWGGHKVFMVKPEEPFQPVKEATQL [D11M],0.0623,0.0636,0.07,0.0669,0.0599,,0.0318,0.0671,0.0643,0.0715,0.0639,0.0491,0.0672,0.0508,0.0651,0.0667,0.0578,,0.0661
MGESLFKGPRDYNPISSSICHLTNESDGHTTSLYGIGFGPFIITNKHLFRRNNGTLVVQSLHGVFKVKDTTTLQQHLVDGRDMIIIRMPKDFPPFPQKLKFREPQREERICLVTTNFQTKSMSSMVSDTSCTFPSGDGIFWKHWIQTKDGQCGSPLVSTRDGFIVGIHSASNFTNTNNYFTSVPKNFMELLTNQEAQQWVSGWRLNADSVLDGGHKVFMVKPEEPFQPVKEATQL [W212D],0.0602,,0.0667,0.0669,0.0154,0.0669,0.0691,,0.0607,0.0584,,,0.05,,0.0616,,0.0531,0.0567,
MGESLFKGPRDYNPISSSICHLTNESDGHTTSLYGIGFGPFIITNKHLFRRNNGTLVVQSLHGVFKVKDTTTLQQHLVDGRDMIMIRMPKDFPPFPQKLKFREPQREERICLVTTNFQTKSMSSMVSDTSCTFPSGDGIFWKHWIQTKDGQCGSPLVSTRDGFIVGIHSASNFTNTNNYFTSVPKNFMELLTNQEAQQWVSGWRLNADSVLWGGHKVFMVKPEEPFQPVKEATQL [I85M],0.0656,0.0734,0.0494,,0.0721,0.0638,0.0589,0.127,,0.0747,0.0604,0.0788,0.0634,,0.0563,0.0422,0.0758,,0.0487
MGESLFKGPRDYNPISSSICHLTNESDGHTTSLYGIGFGPFIITNKHLFRRNNGTLVVQSLHGVFKVKDTTTLWQHLVDGRDMIIIRMPKDFPPFPQKLKFREPQREERICLVTTNFQTKSMSSMVSDTSCTFPSGDGIFWKHWIQTKDGQCGSPLVSTRDGFIVGIHSASNFTNTNNYFTSVPKNFMELLTNQEAQQWVSGWRLNADSVLWGGHKVFMVKPEEPFQPVKEATQL [Q74W],0.0383,0.0573,0.0629,0.0587,0.0706,0.0772,0.0531,,,,0.0601,0.0619,0.0471,0.074,0.0428,0.0669,0.0806,0.0034,0.0568
MGESLFKGPRDYNPISSSICHLTNESDGHTTSLYGIGFGPFIITNKHLFRRNNGTLVVQSLHDVFKVKDTTTLQQHLVDGRDMIIIRMPKDFPPFPQKLKFREPQREERICLVTTNFQTKSMSSMVSDTSCTFPSGDGIFWKHWIQTKDGQCGSPLVSTRDGFIVGIHSASNFTNTNNYFTSVPKNFMELLTNQEAQQWVSGWRLNADSVLWGGHKVFMVKPEEPFQPVKEATQL [G63D],0.0548,0.0523,0.0538,0.0597,,0.0442,0.0563,0.0754,0.075,,0.0564,,0.0581,0.0508,0.0478,0.0415,0.0783,,
MGESLFKGPRDYNPISSSICHLTNESDGHTTSLYGIGFGPFIITNKHLFRRNNGTLVVQSLHGVFKVKDTTTLQQHLVDGRDMIIIRMPKDFPPFPQKLKFREPQREERICLVTTNFQTKSMSSMVSDTSCTFPSGDGIFWKHWIQTKDGQCGSPLVSTRDGFIVGIHSASNFTNTNNYFASVPKNFMELLTNQEAQQWVSGWRLNADSVLWGGHKVFMVKPEEPFQPVKEATQL [T181A],0.0443,,0.0565,0.0733,,0.087,,,,,0.116,0.0745,0.0759,0.0607,,,0.104,0.0813,
MGESLFKGPRDYNPISSSISHLTNESDGHTTSLYGIGFGPFIITNKHLFRRNNGTLVVQSLHGVFKVKDTTTLQQHLVDGRDMIIIRMPKDFPPFPQKLKFREPQREERICLVTTNFQTKSMSSMVSDTSCTFPSGDGIFWKHWIQTKDGQCGSPLVSTRDGFIVGIHSASNFTNTNNYFTSVPKNFMELLTNQEAQQWVSGWRLNADSVLWGGHKVFMVKPEEPFQPVKEATQL [C20S],0.0366,0.0568,0.0686,0.0613,,0.0589,0.0619,,0.0652,,0.0821,0.0647,0.0492,0.0429,0.0551,0.0617,0.0589,0.0359,0.0346
MGESLFKGPRDYNPISSLICHLTNESDGHTTSLYGIGFGPFIITNKHLFRRNNGTLVVQSLHGVFKVKDTTTLQQHLVDGRDMIIIRMPKDFPPFPQKLKFREPQREERICLVTTNFQTKSMSSMVSDTSCTFPSGDGIFWKHWIQTKDGQCGSPLVSTRDGFIVGIHSASNFTNTNNYFTSVPKNFMELLTNQEAQQWVSGWRLNADSVLWGGHKVFMVKPEEPFQPVKEATQL [S18L],0.0248,0.063,0.0566,0.061,,0.0809,0.0557,0.0948,0.0551,,0.0624,,0.0537,,0.0662,0.0559,0.0707,,0.0627
